A compilation of properties of binary mixtures (doi:10.1016/j.jct.2012.02.027)
Some of these densities may be calculated back from excess volumes.

Experiment: xn = mol fraction of the nth substance listed
Conditions: 101 kPa

CCO + CC(=O)[O-].CC[n+]1ccn(C)c1
x1 = 1
Conditions | mass density [kg/m3]
298.15 K | 785.1
313.15 K | 772
328.15 K | 758.6
343.15 K | 744.5

O + CC(=O)[O-].CC[n+]1ccn(C)c1
x1 = 1
Conditions | mass density [kg/m3]
328.15 K | 985.7
343.15 K | 977.8

CC(=O)[O-].CC[n+]1ccn(C)c1 + CCO
mass density [kg/m3]
Conditions | 298.15 K | 313.15 K | 328.15 K | 343.15 K
x2 = 0 | 1097.8 | 1088.6 | – | 1070.5
x2 = 0.1059 | 1086.8 | – | 1068.4 | –
x2 = 0.1638 | 1079.7 | 1070.3 | 1061.1 | 1052
x2 = 0.2471 | 1068.1 | – | 1049.4 | 1040.1
x2 = 0.3504 | 1051.2 | 1041.6 | 1032.1 | –
x2 = 0.4165 | 1038.7 | 1029 | 1019.5 | –
x2 = 0.4824 | 1024.9 | 1015.1 | 1005.4 | 995.8
x2 = 0.5572 | 1006.9 | – | 987 | 977.3
x2 = 0.6646 | 975.1 | 964.9 | 954.7 | 944.6
x2 = 0.7494 | 945.2 | – | 924.2 | 913.7
x2 = 0.8666 | – | 866.4 | 854.8 | 843.2

CC[n+]1ccn(C)c1.N#C[N-]C#N + CCO
mass density [kg/m3]
Conditions | 298.15 K | 313.15 K | 328.15 K | 343.15 K
x2 = 0 | 1102 | – | – | 1072.8
x2 = 0.102 | 1091.3 | 1081.3 | 1071.6 | 1061.9
x2 = 0.1981 | 1079.7 | 1069.7 | 1059.9 | –
x2 = 0.279 | 1069.3 | 1059.2 | 1049.3 | 1039.6
x2 = 0.3596 | 1055.7 | – | – | 1025.8
x2 = 0.4741 | 1033.9 | 1023.7 | 1013.6 | 1003.6
x2 = 0.6028 | – | 991.4 | 981 | 970.7
x2 = 0.6867 | 975.2 | 964.5 | 953.9 | 943.3
x2 = 0.7678 | – | 931.9 | 920.9 | 909.9
x2 = 0.8503 | 901.4 | 890 | 878.5 | 866.9
x2 = 0.9327 | 846.4 | 834.2 | 822 | 809.4

CCO + CC[n+]1ccn(C)c1.N#C[N-]C#N
x1 = 1
Conditions | mass density [kg/m3]
298.15 K | 785.1
343.15 K | 744.5

CC(=O)[O-].CC[n+]1ccn(C)c1 + O
mass density [kg/m3]
Conditions | 298.15 K | 313.15 K | 328.15 K | 343.15 K
x2 = 0 | – | 1088.6 | 1079.5 | 1070.5
x2 = 0.0992 | – | 1089.2 | – | 1071.1
x2 = 0.222 | 1099.6 | – | 1081.4 | –
x2 = 0.3233 | 1101.3 | 1092.3 | 1083.2 | 1074.2
x2 = 0.4207 | – | 1094 | – | 1075.9
x2 = 0.5408 | – | – | 1087.2 | –
x2 = 0.6135 | – | 1097.1 | 1087.6 | 1078.2
x2 = 0.6805 | 1105.9 | 1096.1 | – | –
x2 = 0.7482 | 1104 | 1094 | 1084 | 1074.1
x2 = 0.8134 | 1097.9 | 1087.7 | – | 1067.1
x2 = 0.9067 | 1072.5 | 1062.8 | 1052.9 | 1042.5

CC[n+]1ccn(C)c1.N#C[N-]C#N + O
mass density [kg/m3]
Conditions | 298.15 K | 313.15 K | 328.15 K | 343.15 K
x2 = 0 | – | 1092.1 | 1082.4 | –
x2 = 0.1299 | 1099.7 | 1089.8 | 1080 | 1070.4
x2 = 0.2248 | – | – | 1077.8 | 1068.1
x2 = 0.3042 | – | 1085.5 | 1075.7 | 1065.9
x2 = 0.4308 | – | 1081.5 | 1071.5 | 1061.7
x2 = 0.5429 | 1086.9 | 1076.7 | 1066.6 | 1056.6
x2 = 0.6534 | 1081 | 1070.7 | 1060.4 | 1050.2
x2 = 0.7355 | 1073.6 | 1063.2 | 1052.8 | 1042.4
x2 = 0.7944 | – | 1056.3 | – | 1035.4
x2 = 0.8803 | – | – | 1031.2 | 1020.7
x2 = 0.953 | 1027.5 | – | 1009.9 | 1000.1
